Whole data set: some 110,000 compounds, median “z-score” near -0.1, cut for the highest 2% near 2. Some of the results follow.
Biological target: Metabotropic glutamate receptor 8 (Rattus norvegicus) (UniProt P70579)
Experiment: mGluR8 Gi/Go-coupled signaling modulation – cell-based, rat, thallium flux, HTS, primary screen (AID 488969)
Conditions: HEK293 rat mGluR8, GIRK (G protein-gated inwardly rectifying potassium channel) thallium flux, FluoZin2; at 10 µM; stronger effect = higher value; submaximal glutamate (EC20) added with thallium

Sequence of UniProt P70579 (P70579 whole entry, looked up): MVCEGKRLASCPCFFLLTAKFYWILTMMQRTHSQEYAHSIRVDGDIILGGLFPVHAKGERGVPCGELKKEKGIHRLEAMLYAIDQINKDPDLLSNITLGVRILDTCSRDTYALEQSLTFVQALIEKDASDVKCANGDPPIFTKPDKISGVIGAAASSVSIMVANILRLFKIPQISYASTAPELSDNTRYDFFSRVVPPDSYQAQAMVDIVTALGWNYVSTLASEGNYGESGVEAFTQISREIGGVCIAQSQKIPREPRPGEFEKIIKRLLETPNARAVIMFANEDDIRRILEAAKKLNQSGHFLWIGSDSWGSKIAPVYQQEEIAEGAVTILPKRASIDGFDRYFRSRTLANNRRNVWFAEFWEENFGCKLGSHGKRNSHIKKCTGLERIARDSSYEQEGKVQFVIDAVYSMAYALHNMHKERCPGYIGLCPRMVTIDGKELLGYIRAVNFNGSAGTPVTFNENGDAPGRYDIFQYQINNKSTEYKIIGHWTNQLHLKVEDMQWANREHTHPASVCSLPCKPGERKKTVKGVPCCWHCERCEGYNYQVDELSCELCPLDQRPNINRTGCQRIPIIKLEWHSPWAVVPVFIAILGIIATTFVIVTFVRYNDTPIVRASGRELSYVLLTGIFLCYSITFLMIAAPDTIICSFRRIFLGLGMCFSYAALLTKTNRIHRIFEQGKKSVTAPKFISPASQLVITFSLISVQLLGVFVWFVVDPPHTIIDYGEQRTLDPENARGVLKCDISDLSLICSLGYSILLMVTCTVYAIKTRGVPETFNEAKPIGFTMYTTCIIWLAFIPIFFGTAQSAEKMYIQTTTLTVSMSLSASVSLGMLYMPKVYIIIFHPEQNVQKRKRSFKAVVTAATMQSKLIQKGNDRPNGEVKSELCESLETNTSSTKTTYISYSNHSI

Compound | z-score
COc1cc(/C=N/NC(=O)CCc2ccccc2)ccc1O | 0.127
O=C(Cn1c(=O)oc2ccccc21)NCc1ccco1 | 0.455
CN(C)c1oc(-c2ccccc2Cl)nc1P(=O)(c1ccccc1)c1ccccc1 | -0.353
Cc1cc(C)nc(/N=C(/NC(=O)Nc2ccc(Cl)c(Cl)c2)Nc2ccccc2)n1 | -0.279
C=CCSc1nnc(NC(=O)c2cccc(S(=O)(=O)N(C)c3ccccc3)c2)s1 | 0.542
O=C(Cn1nnc(-c2ccccc2Cl)n1)N/N=C/c1ccc2c(c1)OCO2 | 0.343
Cc1cc(C)n2nc(C(=O)N/N=C/c3c4ccccc4cc4ccccc34)nc2n1 | -0.604
COCCn1c(SCC(=O)NC(=O)NC(C)(C)C)nc2ccccc21 | -0.643
N#C/C(=C\c1ccc([N+](=O)[O-])o1)c1nc2ccccc2[nH]1 | 0.245
O=C(N/N=C/c1ccccc1O)c1cc(=O)[nH]c2ccccc12 | -0.0583
Cc1cc(C(=O)N/N=C/c2ccc[nH]2)n[nH]1 | -0.0646
CC(=O)Nc1cccc(-c2csc(NCc3ccco3)n2)c1 | -0.826
CCOCC(=O)Nc1ccc(S(=O)(=O)N2CCOCC2)cc1 | 0.177
COc1ccccc1OCC(=O)NC1CCCCCC1 | -0.55
COc1cccc(C(=O)Nc2ccccc2)c1 | -0.0644
CCNS(=O)(=O)c1ccc(NS(=O)(=O)c2cc(C)ccc2C)cc1 | 0.0943
N#C/C(=C\c1cn(CC(=O)N2CCCC2)c2ccccc12)C(=O)NCc1ccc2c(c1)OCO2 | -0.396
Cc1ccc(Cn2nnc3c(=O)n(CC(=O)N4CCCCC4)cnc32)cc1 | -0.106
CCOC(=O)c1sc2cccc(F)c2c1N | 0.117
O=C(/C=C/c1ccc(Cl)cc1)Nc1ccc(N2CCCCC2)cc1 | -0.165
Cc1cc(C)cc(N2C(=O)C3C4C=CC(C4)C3C2=O)c1 (centres undefined) | -0.0297
CCOC(=O)C1CCCN(C(=O)CSc2nccn2C)C1 (centres undefined) | 2.87
Cc1c(NC(=O)Nc2ccccc2Cl)sc(=S)n1C | -0.172
CCOC(=O)Cc1csc(NC(=O)c2c(-c3c(F)cccc3Cl)noc2C)n1 | -0.309
Cn1c(SCc2c(F)cccc2Cl)nnc1-c1cccs1 | -0.501
O=C(c1cc(-c2cccs2)on1)N1CCN(C(c2ccccc2)c2ccccc2)CC1 | 0.308
COC(=O)c1c(CSc2ccc(Cl)cc2)noc1C(=O)NCc1ccco1 | -0.229

Compound | z-score
N#CC1=C(Nc2ccccc2)SC=C(c2ccccc2)N=C1N1CCOCC1 | 0.284
COc1ccc(Cl)cc1S(=O)(=O)N1CCN(c2ccc(F)cc2)CC1 | 0.0144
CC1CCN(c2ncnc3nc[nH]c23)CC1 | 0.121
NC(=S)Nc1ccc(Oc2ccc(NC(N)=S)cc2)cc1 | 0.865
CCCCCOc1ccc(NC(=O)C2OC3OC(C)(C)OC3C3OC(C)(C)OC23)cc1 (centres undefined) | -0.234
COc1ccc(Br)cc1CN(C)CC(=O)Nc1ccccc1Cl | -0.228
O=C(Nc1ccc(O)cc1)c1ccc(C(=O)c2ccccc2)o1 | 0.143
COC(=O)c1ccccc1NC(=O)c1nc2nc(C)cc(C(F)F)n2n1 | -0.276
CCC(=O)Nc1ccc2nc(C)n(Cc3ccccc3Cl)c(=O)c2c1 | 0.861
CCOC(=O)CCC(=O)N1CCOCCOCCN(C(=O)CCC(=O)OCC)CCOCCOCC1 | -0.135
Cc1ccc(C)c(NS(=O)(=O)c2cc(C(=O)NCc3ccco3)ccc2C)c1 | -0.408
CCOC(=O)C1(S(=O)(=O)c2ccc(Cl)cc2)CCN(Cc2ccc(C)cc2)CC1 | 1.14
O=C(NCCCN1CCCCC1)c1ccc2c(c1)NC(=O)C(N1CCCCC1)S2 (centres undefined) | 0.905
CN(CCC#N)C(=S)Nc1ccc(Oc2ccccc2)cc1 | -0.139
O=C1CCC(=O)N1OCCCOc1ccc2c(c1)CCC2 | -0.84
Cc1cc(C[n+]2ccccc2)c2nsnc2c1 | 0.0632
CCN(CC)S(=O)(=O)c1ccc(NC(=O)COC(=O)CCc2cc(OC)c(OC)c(OC)c2)cc1 | -0.165
Cc1cccc(Cn2c(Cc3ccccc3)nc3ccccc32)c1 | -0.403
CCc1nnc(NC(=O)c2sc3nc4c(cc3c2N)CCCCC4)s1 | -0.297
Cc1ccc(-c2cc(C(F)F)n3ncc(C(=O)N4CCN(c5cccc(C)c5C)CC4)c3n2)cc1 | -0.482
COc1ccc(-c2cc(=O)oc3cc(OCc4nn[nH]n4)ccc23)cc1 | -0.385
O=C1CCCN1c1ccc(S(=O)(=O)Nc2ccc3c(c2)OCCO3)cc1 | 0.0224
CCN(CC)C(=O)Cn1cnc2sc(C(=O)Nc3cc(OC)c(OC)c(OC)c3)c(C)c2c1=O | -0.344
CCCc1cc(=O)n2[nH]c(NCc3ccccc3F)nc2n1 | -0.425
O=C(c1ccc(Br)cc1)N(C1=NCCCCS1)c1ccccc1 | -0.223
Cc1ccc(CC(=O)N/N=C/c2ccc(OC(=O)c3ccc([N+](=O)[O-])cc3)cc2)cc1 | -0.299
COc1ccc(/C=N/N2CCOCC2)cc1COc1ccc(Cl)cc1 | 0.0786

— PubChem BioAssay AID488969 (Vanderbilt High Throughput Screening Facility, 2010)
